The whole screen tested about 310,000 compounds, of which about 14,000 (4.5%) showed an effect of 50% or more. Effects have a minus sign here. The list shows a part of the results.
The compounds below were run against human ether-à-go-go-related gene (hERG) potassium channel (human, UniProt Q12809) (assay: primary screen, population patch clamp on CHO cells stably expressing hERG).
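Also: peak tail current of the secondary pulse compared with the same well before compound.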

Chain of human ether-à-go-go-related gene (hERG) potassium channel (Q12809 whole entry, looked up): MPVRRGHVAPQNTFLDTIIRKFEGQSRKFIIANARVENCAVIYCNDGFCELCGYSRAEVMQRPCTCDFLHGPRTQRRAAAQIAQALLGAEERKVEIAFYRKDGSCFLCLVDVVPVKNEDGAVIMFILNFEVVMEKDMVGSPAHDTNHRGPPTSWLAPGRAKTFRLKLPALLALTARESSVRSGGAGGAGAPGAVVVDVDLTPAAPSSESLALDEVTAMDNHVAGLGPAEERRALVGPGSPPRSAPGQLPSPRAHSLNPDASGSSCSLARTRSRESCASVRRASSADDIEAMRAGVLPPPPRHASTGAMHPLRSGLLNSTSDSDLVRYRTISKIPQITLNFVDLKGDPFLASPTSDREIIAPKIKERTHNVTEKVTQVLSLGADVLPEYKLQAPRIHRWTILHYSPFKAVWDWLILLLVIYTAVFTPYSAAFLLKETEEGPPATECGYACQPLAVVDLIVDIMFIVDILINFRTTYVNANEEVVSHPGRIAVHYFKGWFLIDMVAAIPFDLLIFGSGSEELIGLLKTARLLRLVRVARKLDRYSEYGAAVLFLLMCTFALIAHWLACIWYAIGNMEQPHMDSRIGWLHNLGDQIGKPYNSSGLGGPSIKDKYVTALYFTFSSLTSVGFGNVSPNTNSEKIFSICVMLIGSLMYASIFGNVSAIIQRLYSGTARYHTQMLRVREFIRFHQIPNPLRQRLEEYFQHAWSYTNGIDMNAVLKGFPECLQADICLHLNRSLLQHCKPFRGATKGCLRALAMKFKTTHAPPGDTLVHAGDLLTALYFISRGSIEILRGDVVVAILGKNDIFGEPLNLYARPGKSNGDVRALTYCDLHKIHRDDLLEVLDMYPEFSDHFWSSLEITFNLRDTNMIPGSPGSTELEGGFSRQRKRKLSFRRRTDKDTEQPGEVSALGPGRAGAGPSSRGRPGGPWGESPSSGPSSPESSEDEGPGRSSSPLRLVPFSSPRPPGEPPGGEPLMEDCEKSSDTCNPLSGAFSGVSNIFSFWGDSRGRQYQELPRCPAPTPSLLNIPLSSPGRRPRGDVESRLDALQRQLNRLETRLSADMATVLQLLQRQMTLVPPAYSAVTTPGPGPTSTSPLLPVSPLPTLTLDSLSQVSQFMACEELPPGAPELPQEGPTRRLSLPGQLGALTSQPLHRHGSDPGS

Row | SMILES | hERG current change (%, negative = inhibition) at 10uM [%]
1 | CCOC(=O)C1CN(S(=O)(=O)c2ccc(OC)cc2)c2cc(Cl)ccc2O1 (stereo not drawn) | 3.8
2 | CC1CCN(C(=O)c2ccc3c(=O)n4c(nc3c2)CCCCC4)CC1 | 3.73
3 | COC(=O)c1ccc(COc2cccnc2[N+](=O)[O-])cc1 | -3.09
4 | CCOC(=O)/C(C#N)=C/Nc1ccsc1C(=O)OC | 11.5
5 | O=C(CP(=O)(c1ccccc1)c1ccccc1)Nc1cccc(CP(=O)(c2ccccc2)c2ccccc2)c1 | 6.43
6 | Cc1cc(C)c(C(=O)OCC(=O)NC(=O)c2ccccc2)c(C)c1 | 11.9
7 | COc1ccc(C2/C=C\CN(C(=O)C3CC3)[C@H](Cc3ccccc3)C(=O)N2Cc2ccc(F)cc2)cc1 (stereo partly drawn) | 5.22
8 | C/C(N)=C(/C#N)C(=O)COC(=O)c1cc(-c2cccc(Br)c2)nc2ccccc12 | -13.5
9 | CCCCn1c(O)c(/C=C2/C=CC=N2)c(=O)[nH]c1=O | 6.34
10 | CCC1(c2ccccc2)NC(=O)N(Cc2ccc(C(=O)OC)cc2)C1=O (stereo not drawn) | -5.74
11 | S=C(NCc1cccnc1)Nc1cc(Cl)cc(Cl)c1 | -4.96
12 | NS(=O)(=O)c1ccc(NC(=S)NCCc2ccccc2)cc1 | 22.1
13 | CC1(C)SC2c3ccccc3C(=O)N2[C@@H]1C(=O)NCCCN1CCOCC1 (stereo partly drawn) | 7.08
14 | Cc1cc(C)c(C)c(OCC(=O)NCC2CCCO2)c1 (stereo not drawn) | -1.35
15 | Cc1nn(C(C)C)c(C)c1CN1CCC(C(=O)Nc2cccc(-c3cccc(F)c3)c2)CC1 | -67.8
16 | CCOCCCNC(=O)c1c(-c2ccccc2)noc1C | 9.79
17 | CCc1noc(C)c1C(=O)Nc1cccc(S(=O)(=O)N(C)c2ccccc2)c1 | -22.1
18 | O=C(CC1C(=O)NCCN1Cc1c(F)cccc1Cl)NC1CCCC1 (stereo not drawn) | -2.51
19 | CCOc1ccc(NC(=O)CN(C)C(=O)c2ccc(N3CCCC3)c([N+](=O)[O-])c2)cc1OCC | -49.1
20 | NC(=O)c1nn(-c2ccccc2)nc1NC(=O)Cn1nnc(-c2ccccc2)n1 | 26
21 | COc1ccccc1-n1c(CNc2c(C)cccc2C)nnc1SCC(=O)N1CCOCC1 | -19.1

Row | SMILES | hERG current change (%, negative = inhibition) at 10uM [%]
22 | CCOC(=O)c1c(C)[nH]c(C(=O)COC(=O)CCS(=O)(=O)c2ccc(C)cc2)c1C | -2.1
23 | CCN1CCN(C2=C(NS(=O)(=O)c3ccccc3)C(=O)c3ccccc3C2=O)CC1 | -5.21
24 | CCOC(=O)Nc1ccc(S(=O)(=O)N2CCOCC2)cc1 | 6.38
25 | CCN(CC)C(=O)c1ccc(/C=C/c2c[nH]c3ccccc23)[n+](C)c1.[I-] | 21.4
26 | CCc1nnc(NS(=O)(=O)c2ccc(NC(=O)c3ccccc3C)cc2)s1 | 1.6
27 | O=C1C2CCCN2C(c2ccc(Br)cc2)N1c1ccc(F)cc1 (stereo not drawn) | -7.21
28 | O/N=C/c1cccc[n+]1CCCCCC[n+]1ccccc1/C=N/O.[Br-] | 20.1
29 | CCC(CC)NC(=O)COC(=O)c1ccc(OCc2ccc(C(C)=O)cc2OC)c(OC)c1 | 1.91
30 | CCn1nc(C)cc1C(=O)n1nc(C)c(Sc2ncccn2)c1C | 18.3
31 | Cc1ccccc1OCCNc1cc(N2CCN(CCO)CC2)ccc1[N+](=O)[O-] | -35.7
32 | Cc1ccc(N2C(=O)C3ON(c4ccccc4)C(c4ccncc4)C3C2=O)cc1 (stereo not drawn) | -13
33 | COc1cc2c(cc1NC(=O)/C=C/c1ccc([N+](=O)[O-])cc1)oc1ccccc12 | 13.5
34 | COC(=O)CNC(c1ccccc1)c1cc(C)ccc1NS(=O)(=O)c1ccc(C)cc1 (stereo not drawn) | -10.9
35 | NNC(=O)c1cccnc1Oc1ccccc1 | 8.19
36 | Cc1noc(C)c1COc1ccc(C(=O)NNC(=O)c2ccccc2O)cc1 | 2.21
37 | O=P(c1ccccc1)(c1ccccc1)c1cc(S(=O)(=O)[O-])ccc1O.[Na+] | 17.7
38 | O=C(NN1C(=O)C2C3C=CC(C4CC34)C2C1=O)c1ccc(Cl)cc1Cl (stereo not drawn) | 3.48
39 | O=C(CSc1ccccn1)Nc1ccc2c(c1)oc1ccccc12 | 12.8
40 | COc1cc(/C=C2/C(=O)N(c3ccc(Br)cc3)N=C2C)cc([N+](=O)[O-])c1O | 17.4
41 | O=C(N/N=C1\CCSc2ccc(F)cc21)c1cccnc1 | 6.42
42 | COc1ccccc1CNC(=O)CCCn1c(=O)c2ccccc2n(CC(=O)NC2CCCC2)c1=O | 4.29

Row | SMILES | hERG current change (%, negative = inhibition) at 10uM [%]
43 | COc1ccc(-c2nnc(NC(=O)c3cc(C)on3)s2)cc1 | -20.3
44 | COc1c(C)cc(S(=O)(=O)NC2CC(C)(C)NC(C)(C)C2)c(C)c1C | -4.41
45 | CCOC(=O)c1ccc(-c2ccc(/C=N/NC(=O)CN(c3ccccc3Cl)S(C)(=O)=O)o2)cc1 | 0.449
46 | CCN(c1cccc(C)c1)S(=O)(=O)c1ccc2c(c1)NC(=O)CS2 | -7.28
47 | Cc1ccc(C(=O)Oc2cc(C)[nH]c(=O)c2[N+](=O)[O-])cc1 | 12
48 | CC1(c2ccc(OC(F)F)cc2)NC(=O)N(CC(=O)N2CCN(C(=O)c3ccco3)CC2)C1=O (stereo not drawn) | -15
49 | COc1ccc(N(C(=O)c2snc(C(N)=O)c2N)C(C(=O)NCC2CCCO2)c2ccc3ncccc3c2)cc1OC (stereo not drawn) | 9.02
50 | Cc1cc([N+](=O)[O-])nn1CC(=O)NCc1nc2ccccc2[nH]1 | 6.92
51 | O=C(NCc1ccccc1)c1ccccc1CO | 0.57
52 | Cc1ccc(CN2CC(C(=O)NCC(=O)Nc3c(C)cccc3C)CC2=O)cc1 (stereo not drawn) | 3.92
53 | OCC[C@@H]1C[C@H](O)[C@@H](O)[C@@]2(Cc3ccccc3O2)O1 | 19.2
54 | COc1ccccc1CCNC1CCCCCC1 | 2.84
55 | CN(C)/C=C/C(=O)c1ccc(S(=O)(=O)c2ccccc2)cc1 | 15.2
56 | CCOC(=O)N1CCN(C(=O)CN(C2CCCCC2)S(=O)(=O)c2ccc(F)cc2)CC1 | -25.3
57 | Cc1ccc(CNc2nc(C)nc3sc4c(c23)CCC4)cc1 | -4.22
58 | Cc1nc2ccccc2c2nc(N)nn12 | 0.19
59 | O=C(Nc1cccc(C(F)(F)F)c1)c1cc2ncc(Br)cn2n1 | 4.84
60 | COc1ccccc1NC(=S)NNC(=O)c1c(Cl)c(C)nn1C | 32.8
61 | COc1cc(OC)c(/C=N/N2CCN(c3ccccc3OC)CC2)c(OC)c1 | 2.49
62 | CCOC(=O)C1=NN(c2ccccc2)C2=NC(C)=C(C(=O)OC)C(c3ccc(C)cc3)N12 (stereo not drawn) | -5.08
63 | COC(=O)c1ccccc1-n1c(CCC(=O)O)ccc1-c1ccc(F)cc1 | 1.42

Row | SMILES | hERG current change (%, negative = inhibition) at 10uM [%]
64 | COc1ccc(N2CCN(C3CCCN(Cc4ccc(F)cc4)C3)CC2)cc1 (stereo not drawn) | -32.8
65 | COc1ccc2nc3ccccc3nc2c1NC(=O)c1ccccc1Cl | -5.99
66 | CCC1CCCCN1C(=O)c1ccc(OC2CCN(C(=O)COC)CC2)cc1 (stereo not drawn) | 6.08
67 | CCN1CCCC1CNc1ccc(S(C)(=O)=O)cc1[N+](=O)[O-] (stereo not drawn) | -47.6
68 | O=C(COc1ccc(Cl)cc1)Nc1cccc(S(=O)(=O)NC2=NCCCCC2)c1 | -42.1
69 | Cc1ccc(N(CC(O)CN2CCOCC2)S(=O)(=O)c2ccc([N+](=O)[O-])cc2)cc1 (stereo not drawn) | -65.2
70 | Cc1cc(C(=O)CSc2ncnc3ccccc23)c(C)n1C1CC1 | 10.1
71 | O=C(CCCCCN1C(=O)c2ccccc2C1=O)Nc1cccc(O)c1 | -0.283
72 | NS(=O)(=O)c1ccc(CCNC(=O)C2Cc3ccccc3CN2C(=O)c2ccco2)cc1 (stereo not drawn) | 9.39
73 | Cc1noc(-c2ccc(C(F)(F)F)cc2)c1NC(=O)Nc1ccc(Cl)cc1 | 22.3
74 | CNNC(=S)NC1CC2CC1C1C=CCC21 (stereo not drawn) | -5.34
75 | CCn1ccnc1CN1CCCC(C(=O)c2ccc(SC)cc2)C1 (stereo not drawn) | -58.3
76 | C[N+](C)(C)CC/C=C1/c2ccccc2CSc2ccccc21.[I-] | 9.59
77 | CCc1cc(=O)oc2cc(OCc3nn[nH]n3)ccc12 | 3.52
78 | CCOC(=O)c1ccc(NC(=O)CC2S/C(=N/N=C3/NC(=O)CS3)NC2=O)cc1 (stereo not drawn) | 15.1
79 | COc1cc(C(=S)N2CCCC2)ccc1OS(=O)(=O)c1ccc(NC(C)=O)cc1 | 11.3
80 | COC(=O)C1=NN(c2ccc(OC)cc2)C2C(=O)N(c3ccccc3OC)C(=O)C12 (stereo not drawn) | 10.7
81 | C=CCNC(=O)CN1C(=O)NC(C)(c2ccc(OC)cc2)C1=O (stereo not drawn) | -14.2
82 | Cc1ccc(S(=O)(=O)CCC(=O)Nc2sccc2C#N)cc1 | -11.4
83 | CCCCCCc1cc2cc(-c3nnc(-c4cc(OC)c(OC)c(OC)c4)o3)c(=O)oc2cc1O | 4.47
84 | COc1ccc(-c2c(C)nn3c(N4CCCCCC4)cc(C)nc23)cc1OC | 7.94

From publication PMC4336329 (PLoS ONE, 2015)
